Experimental data taken from PMC9730857 (ACS chemical neuroscience, 2022).
Converted amounts (≈) assume the structure as drawn. Read-outs that look alike come from different tables or passages of the source.

How the values were obtained:
[1] = tested on: P-gp (MDR1); assay: Bidirectional permeability through MDCK-mdr1 monolayers; assay type: in vitro ADME; details: dog, MDCK-MDR1, pH 7.4
[2] = target: T1, rTAAR1 (Rattus norvegicus, UniProt Q923Y9); assay: rTAAR1 LanceUltra cAMP IC50
[3] = target: T2, mTAAR1 (Mus musculus, UniProt Q923Y8); assay: mTAAR1 cAMP agonist assay
[4] = Metabolic stability in mouse liver microsomes; assay type: in vitro ADME; details: pH 7.4
[5] = target: T1, rTAAR1; assay: rTAAR1 cAMP Schild analysis; details: rTAAR1 cAMP assay
[6] = tested on: panel of 42 targets; assay: NIMH PDSP off-target radioligand binding panel; details: 10 μM, except BZP rat brain site and human sigma 2
[7] = tested on: BZP rat brain site; assay: NIMH PDSP radioligand binding, BZP rat brain site
[8] = Kinetic solubility in phosphate buffer pH 7.4; assay type: physicochemical; details: pH 7.4, aqueous buffer, kinetic from dmso stock
[9] = target: human sigma 2 (Homo sapiens, UniProt Q5BJF2); assay: NIMH PDSP radioligand binding, human sigma 2
[10] = target: T1, rTAAR1; assay: rTAAR1 cAMP agonist assay
[11] = target: T2, mTAAR1; assay: mTAAR1 LanceUltra cAMP IC50
[12] = Metabolic stability in rat liver microsomes; assay type: in vitro ADME; details: pH 7.4
[13] = target: T2, mTAAR1; assay: [3H]RO5166017 radioligand binding, mTAAR1 membranes
[14] = tested on: VTA dopamine neurons; assay: Electrophysiology, spontaneous firing of VTA dopamine neurons in mouse slices; assay type: cell-based; details: for Firing rate of dopamine neurons: baseline 0.6 ± 0.1 Hz
[15] = Metabolic stability in human liver microsomes; assay type: in vitro ADME; details: pooled human liver microsomes, pH 7.4
[16] = target: T2, mTAAR1; details: cited from earlier work
[17] = target: T1, rTAAR1; assay: Literature functional data at rTAAR1; assay type: cell-based; details: from literature IC50 values
[18] = literature; cited from earlier work
[19] = target: T1, rTAAR1; details: read-out: EC50 at rTAAR1; literature; cited from earlier work

T2 sequence (Q923Y8 whole entry): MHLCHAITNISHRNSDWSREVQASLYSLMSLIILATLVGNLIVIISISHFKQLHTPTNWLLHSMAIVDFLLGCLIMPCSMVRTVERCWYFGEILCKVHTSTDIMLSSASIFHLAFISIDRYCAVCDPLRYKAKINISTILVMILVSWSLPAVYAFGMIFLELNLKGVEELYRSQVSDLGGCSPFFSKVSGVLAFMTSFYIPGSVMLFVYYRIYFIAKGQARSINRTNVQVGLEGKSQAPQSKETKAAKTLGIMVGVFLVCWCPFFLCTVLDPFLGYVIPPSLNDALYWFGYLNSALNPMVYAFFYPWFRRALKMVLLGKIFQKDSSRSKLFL
T1 sequence (Q923Y9 whole entry): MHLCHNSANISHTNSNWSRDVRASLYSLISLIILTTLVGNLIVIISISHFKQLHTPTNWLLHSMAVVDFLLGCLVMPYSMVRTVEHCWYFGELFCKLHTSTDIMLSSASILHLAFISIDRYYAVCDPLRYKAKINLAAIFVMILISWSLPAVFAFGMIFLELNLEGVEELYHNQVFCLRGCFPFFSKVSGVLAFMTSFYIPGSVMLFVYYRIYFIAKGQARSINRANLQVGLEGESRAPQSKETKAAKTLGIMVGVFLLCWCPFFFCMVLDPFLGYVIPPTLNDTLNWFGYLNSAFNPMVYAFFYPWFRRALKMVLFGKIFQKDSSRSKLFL
UniProt Q5BJF2, sequence (Q5BJF2 whole entry): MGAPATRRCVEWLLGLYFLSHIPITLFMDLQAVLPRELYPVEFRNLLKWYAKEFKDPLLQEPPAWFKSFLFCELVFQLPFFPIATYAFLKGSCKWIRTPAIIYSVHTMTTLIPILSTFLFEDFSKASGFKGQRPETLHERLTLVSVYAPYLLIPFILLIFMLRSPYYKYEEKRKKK

In the case of `N#Cc1c(C(F)(F)F)cc(-c2ccc(Cl)cc2)nc1SCC(=O)Nc1ncccn1` [Compound 34, 2-[[6-(4-chlorophenyl)-3-cyano-4-(trifluoromethyl)-2-pyridinyl]thio]-N-2-pyrimidinylacetamide], the Papp A→B at 90 min, 10 μM [1] is reported as 13.8 ×10⁻⁶ cm/s, the Papp B→A at 90 min, 10 μM [1] is reported as 13.9 ×10⁻⁶ cm/s and the efflux ratio at 90 min, 10 μM [1] is reported as 1. The IC50 [2] was 748 ± 56 nM, the “fold less potent at rTAAR1 than at hTAAR1” value ([2]; functional cAMP IC50 values) was 89 fold and the “Change of mTAAR1-mediated cAMP production” value ([3]; 10 μM) was −12.0%. The half-life at 10 μM [4] was 1.1 h, the “Schild plot slope (rTAAR1)” value [5] was −0.3 and the “Off-target activity in panel of 42 targets” value [6] was “little to no off-target activity”. The “Inhibition at BZP rat brain site” value ([7]; 10 μM, radioligand binding) was 75%, the Ki ([7]; read-out: Ki at BZP rat brain site, follow-up concentration response) was 1000 nM and the solubility kinetic at 90 min [8] was 1.7 ± 0.5 µM (≈ 0.765 µg/mL). For the same compound, the Ki [9] was 8400 nM, the inhibition at 10 µM ([9]; read-out: Inhibition at human sigma 2) was 90% and the “Change of rTAAR1-mediated cAMP production” value ([10]; 10 μM) was −15.4%. The IC50 [11] was 1190 ± 80 nM, the “fold less potent at mTAAR1 than at hTAAR1” value ([11]; functional cAMP IC50 values) was 142 fold and the half-life at 10 μM [12] was 9.11 min. The Ki [13] was 139 ± 66 nM, the “Change in firing from baseline” value ([14]; 0.1 μM) was 0.19 ± 0.1 Hz and the “Change in firing from baseline” value ([14]; 10 μM) was 0.4 ± 0.1 Hz. For the same compound, the “Change in firing from baseline” value ([14]; 40 μM) was 0.7 ± 0.2 Hz, the “Firing rate of dopamine neurons” value ([14]; 40 μM applied after EPPTB 10 nM) was 0.7 ± 0.1 Hz and the “Firing rate of VTA dopamine neurons” value ([14]; 40 μM, baseline 1.0 ± 0.2 Hz) was 2.3 ± 0.6 Hz. For the same compound, the half-life at 10 μM [15] was 1.4 h and the microsomal CLint at 10 μM [15] was 14.9 µL/min/mg.

In the case of `CCOc1cccc(NC(=O)c2ccc(N3CCCC3)c(C(F)(F)F)c2)c1` [EPPTB, N-(3-ethoxyphenyl)-4-(pyrrolidin-1-yl)-3-trifluoromethylbenzamide], the IC50 ([16]; read-out: mTAAR1 IC50, literature value) is listed as 27.5 ± 9.4 nM, the “fold less potent at rTAAR1 than at mTAAR1 (functional)” value [17] is listed as 165 fold and the brain/plasma ratio [18] is listed as 0.5. The “clearance” value [18] was “high clearance” and the “Firing rate of dopamine neurons” value ([14]; 10 nM) was 0.9 ± 0.1 Hz.

For `NCCc1ccccc1` [PEA, β-phenethylamine, reference compound], the EC50 ([16]; read-out: EC50 at mTAAR1, literature) is listed as 200 nM, the EC50 [19] is listed as 110 nM and the EC50 ([3]; read-out: EC50 at mTAAR1, control agonist, cAMP assay) is listed as 150 ± 9 nM. For the same compound, the EC50 ([10]; read-out: EC50 at rTAAR1, control agonist, cAMP assay) was 231 ± 15 nM.

With `CCN(C[C@H]1COC(N)=N1)c1ccccc1` [RO5166017, reference compound] the “Effect on firing of dopamine neurons” value ([14]; 500 nM agonist alone) was “significantly decreased firing of dopamine neurons”.
